#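 48-hour exposure; five concentrations; linearly interpolated endpoints. The concentration for full growth arrest is given as TGI.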 Some entries of the source have several records that differ or are many. The list is limited to them. There may be further records. Records of one sample usually come from different ranges of test concentrations, not given here; a value can be the end of its range.
# Test system: MDA-MB-468 breast
# Experiment: NCI tumour cell line growth inhibition, 48 h
smiles,measurement,value
CN1CC[C@H](N(C)C(=O)N2CC(c3cc(F)ccc3F)=C[C@@]2(CO)c2ccccc2)[C@H](F)C1,TGI,51.6 nM and 3.34 µM

# Source: PubChem BioAssay (NCI)
